Assay results as given in the supplement of paper PMC9446081.
Hit rate of the full screen: of about 39,000 compounds, about 220 (0.56%) showed activity. The list shows a part of the results.

Tested on: Escherichia coli K-12 BW25113
Assay: relative growth (OD600 normalised to plate interquartile mean) (fraction); higher = less growth inhibition, active = 0.2 or less
Conditions: 50 µM; LB; incubation time: overnight (16-24 h)
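Also: static incubation at 37 °C against the wild-type strain, values averaged over two biological replicates.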

Compound	relative growth
CN1CCN(C(=O)C[C@H]2CC[C@@H]3[C@H](COC[C@H](O)CN3C(=O)C3CC3)O2)CC1	inactive: 1.01
C=CC(=O)N1C[C@H]2CC[C@H](O)[C@H]2C1	inactive: 1.01
C[C@H](CO)N1C[C@H](C)[C@H](CN(C)Cc2ccc3c(c2)OCO3)OCCCC[C@H](C)Oc2ccc(NS(=O)(=O)c3ccccc3)cc2C1=O	inactive: 0.992
C[C@H]1CCCCO[C@@H](CN(C)Cc2ccc(C(F)(F)F)cc2)[C@@H](C)CN([C@@H](C)CO)C(=O)c2cc(NS(=O)(=O)c3cccs3)ccc2O1	inactive: 1.05
Cc1ccnn1-c1ccc(CN)cc1	inactive: 1.01
C[C@@H]1CN([C@H](C)CO)C(=O)c2cccc(NC(=O)Nc3ccccc3)c2O[C@H]1CN(C)Cc1ccc(C(F)(F)F)cc1	inactive: 0.838
CN(C)CCCNC(=O)[C@H]1[C@H](CO)[C@H]2Cn3c(ccc(-c4cccc(C(=O)N(C)C)c4)c3=O)[C@@H]1N2	inactive: 1.05
C[C@@H]1CCCCO[C@H](CN(C)C(=O)Nc2ccc(C(F)(F)F)cc2)[C@@H](C)CN([C@@H](C)CO)C(=O)c2cc(NC(=O)CCC(F)(F)F)ccc2O1	inactive: 1.04
C[C@H]1CN([C@@H](C)CO)C(=O)c2cc(NC(=O)Nc3ccc(F)cc3)ccc2O[C@@H]1CN(C)CC1CCCCC1	inactive: 0.973
O=C(O)c1cc(-c2ccc(F)cc2F)ccc1O	inactive: 0.72
CCSc1cccc2cccnc12	inactive: 0.897
COc1ccc(NC(=O)N(C)C[C@@H]2OCCCC[C@H](C)Oc3ccc(NS(=O)(=O)c4ccc(C)cc4)cc3C(=O)N([C@H](C)CO)C[C@H]2C)cc1	inactive: 1.02
O=C(C[C@H]1CC[C@@H]2[C@H](COC[C@@H](O)CN2C(=O)Nc2cccc(Cl)c2)O1)NCc1ccccc1F	inactive: 0.794
Cc1noc(C)c1S(=O)(=O)Nc1ccc2c(c1)C(=O)N([C@@H](C)CO)C[C@@H](C)[C@@H](CN(C)S(=O)(=O)c1c(C)noc1C)O2	inactive: 0.983
COc1ccccc1CNC(=O)C[C@@H]1C[C@@H]2c3cc(NC(=O)c4ccc5c(c4)OCO5)ccc3O[C@@H]2[C@H](CO)O1	inactive: 1.04
C[C@@H]1CN([C@@H](C)CO)C(=O)Cc2cc(NC(=O)Nc3ccc(C(F)(F)F)cc3)ccc2O[C@@H]1CN(C)CC1CCCCC1	inactive: 1.03
CC(C)Cn1cnc2ccccc21	inactive: 1.01
NS(=O)(=O)c1ccc(NC(=O)C2CC2)cc1	inactive: 1
Cc1c(NC(=O)c2cc3c(s2)CCCC3)cccc1-c1cn(C)c(=O)c(Nc2ccc([C@H]3C(=O)N(C)CCN3C)cc2)n1	inactive: 1
COc1ccc(CN(C)C[C@H]2OCCCC[C@@H](C)Oc3ccc(NC(=O)Nc4c(C)noc4C)cc3C(=O)N([C@H](C)CO)C[C@@H]2C)cc1	inactive: 0.894
COc1ccccc1CN(C)C[C@H]1OCc2ccccc2-c2c(n(C)c3ccccc23)C(=O)N([C@H](C)CO)C[C@@H]1C	inactive: 1

Compound	relative growth
O=C(C[C@H]1C[C@@H]2c3cc(NS(=O)(=O)c4ccc(F)cc4)ccc3O[C@@H]2[C@@H](CO)O1)NCc1ccccn1	inactive: 1.01
Cc1cc(-c2cc[nH]n2)c(C)s1	inactive: 0.917
COc1ccc(NC(=O)N(C)C[C@@H]2OCCCC[C@H](C)Oc3ccc(NC(=O)Nc4c(C)noc4C)cc3C(=O)N([C@@H](C)CO)C[C@@H]2C)cc1	inactive: 1.03
C[C@H]1CN([C@@H](C)CO)C(=O)c2cc(C#CCC3CCCC3)cnc2O[C@H]1CN(C)C(=O)c1cnccn1	inactive: 0.999
CCc1ccc(NC(=O)C2CCN(S(=O)(=O)c3c(C)[nH]c(=O)[nH]c3=O)CC2)cc1	inactive: 1.01
C[C@H]1CN([C@@H](C)CO)C(=O)Cc2cc(NC(=O)CCCCCC(=O)Nc3ccccc3N)ccc2O[C@H]1CN(C)Cc1ccc(-c2ccccc2)cc1	inactive: 0.991
O=C(CCCCC(=O)N/N=C/[C@H](O)[C@H](O)[C@@H](O)[C@@H](O)CO)NO	inactive: 1.01
CCCN(C)C[C@@H]1OCCCC[C@@H](C)Oc2ccc(NC(=O)C3CCCCC3)cc2C(=O)N([C@@H](C)CO)C[C@@H]1C	inactive: 0.995
C[C@@H]1CN([C@@H](C)CO)C(=O)c2cccc(NC(=O)c3cnccn3)c2O[C@H]1CN(C)S(C)(=O)=O	inactive: 1.03
CCCC(C(=O)OCCN(CC)CC)(c1ccccc1)c1ccccc1.Cl	inactive: 0.943
C[C@@H]1CN([C@@H](C)CO)C(=O)c2cccc(NC(=O)c3ccncc3)c2O[C@H]1CN(C)S(=O)(=O)c1cccs1	inactive: 0.986
C[C@H]1CN([C@@H](C)CO)S(=O)(=O)c2ccc(-c3cccc(C(=O)N(C)C)c3)cc2O[C@H]1CN(C)C(=O)Cc1ccccn1	inactive: 0.984
COc1ccc(NC(=O)Nc2ccc3c(c2)C(=O)N([C@@H](C)CO)C[C@@H](C)[C@H](CN(C)S(=O)(=O)c2ccc(Cl)cc2)OCCCC[C@@H](C)O3)cc1	inactive: 0.975
Cc1ccc(S(=O)(=O)N[C@@H]2CC[C@@H](CCNC(=O)CN3CCOCC3)O[C@@H]2CO)cc1	inactive: 1.01
O=C(O)[C@H]1C2C(=O)N(C3CC3)C[C@]23C=C[C@H]1O3 (stereo partly specified)	inactive: 1.01
C[C@H](CO)N1C[C@H](C)[C@@H](CN(C)Cc2ccc(C(=O)O)cc2)OCCCC[C@H](C)Oc2ccc(NS(=O)(=O)c3ccccc3)cc2C1=O	inactive: 0.973
COc1ccc(COC[C@]23N=C4SCC(=O)N4[C@H](c4ccccc4O2)[C@H]3COC(=O)NCCCCCC(=O)NO)cc1	inactive: 0.912
C[C@@H]1CN([C@@H](C)CO)S(=O)(=O)c2ccc(C#CCC3CCCC3)cc2O[C@@H]1CN(C)C(=O)CN(C)C	inactive: 0.958
C[C@H]1CN([C@@H](C)CO)C(=O)c2cc(/C=C/c3ccccc3)cnc2O[C@H]1CN(C)C(=O)Nc1ccc(C(F)(F)F)cc1	inactive: 0.978
CO[C@H]1CN(C)C(=O)c2cc(NC(=O)Nc3ccccc3F)ccc2OC[C@H](C)N(CCC(F)(F)F)C[C@@H]1C	inactive: 1.02
